For eleven substances, binding results are on record in publication PMC3900716.

The chains behind the UniProt entries cited, without tags or fusion partners. Where a name states a change or a piece, a line headed by the entry shows the natural chain unless it says otherwise. A line that says so, or that is headed by a name, gives the form on record, which may keep a tag or linker. Residues count along the entry.
RET51 (wild type) (P07949, residues 29-1114): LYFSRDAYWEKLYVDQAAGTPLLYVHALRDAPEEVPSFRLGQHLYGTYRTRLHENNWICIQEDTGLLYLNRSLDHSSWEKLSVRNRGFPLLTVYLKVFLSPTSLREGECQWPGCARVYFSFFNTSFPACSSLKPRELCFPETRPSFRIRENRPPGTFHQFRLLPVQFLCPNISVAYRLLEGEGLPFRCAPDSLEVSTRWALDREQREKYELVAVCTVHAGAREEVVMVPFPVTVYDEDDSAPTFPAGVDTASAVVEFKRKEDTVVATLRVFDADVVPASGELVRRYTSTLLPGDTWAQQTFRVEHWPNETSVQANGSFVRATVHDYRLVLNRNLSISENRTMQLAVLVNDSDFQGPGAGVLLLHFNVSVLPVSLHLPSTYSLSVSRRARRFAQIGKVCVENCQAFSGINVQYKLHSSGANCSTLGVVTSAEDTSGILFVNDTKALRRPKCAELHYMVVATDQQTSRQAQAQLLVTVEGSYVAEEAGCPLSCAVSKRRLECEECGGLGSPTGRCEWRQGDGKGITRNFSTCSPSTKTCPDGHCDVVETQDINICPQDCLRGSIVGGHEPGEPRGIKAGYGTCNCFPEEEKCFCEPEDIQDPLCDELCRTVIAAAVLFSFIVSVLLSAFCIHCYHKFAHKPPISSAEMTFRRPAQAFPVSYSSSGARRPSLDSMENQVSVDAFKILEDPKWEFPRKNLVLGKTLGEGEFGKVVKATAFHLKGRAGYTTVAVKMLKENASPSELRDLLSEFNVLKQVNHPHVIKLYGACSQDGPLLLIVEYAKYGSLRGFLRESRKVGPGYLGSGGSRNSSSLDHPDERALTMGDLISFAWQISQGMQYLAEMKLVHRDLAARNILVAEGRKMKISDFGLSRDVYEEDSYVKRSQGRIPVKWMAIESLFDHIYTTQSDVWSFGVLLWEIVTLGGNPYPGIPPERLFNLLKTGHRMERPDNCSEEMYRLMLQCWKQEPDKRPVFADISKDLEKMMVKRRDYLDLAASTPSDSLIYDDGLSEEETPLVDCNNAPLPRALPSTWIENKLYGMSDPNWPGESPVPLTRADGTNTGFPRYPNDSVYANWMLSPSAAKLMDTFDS
RET9MEN2A Y900* (P07949-2, form named): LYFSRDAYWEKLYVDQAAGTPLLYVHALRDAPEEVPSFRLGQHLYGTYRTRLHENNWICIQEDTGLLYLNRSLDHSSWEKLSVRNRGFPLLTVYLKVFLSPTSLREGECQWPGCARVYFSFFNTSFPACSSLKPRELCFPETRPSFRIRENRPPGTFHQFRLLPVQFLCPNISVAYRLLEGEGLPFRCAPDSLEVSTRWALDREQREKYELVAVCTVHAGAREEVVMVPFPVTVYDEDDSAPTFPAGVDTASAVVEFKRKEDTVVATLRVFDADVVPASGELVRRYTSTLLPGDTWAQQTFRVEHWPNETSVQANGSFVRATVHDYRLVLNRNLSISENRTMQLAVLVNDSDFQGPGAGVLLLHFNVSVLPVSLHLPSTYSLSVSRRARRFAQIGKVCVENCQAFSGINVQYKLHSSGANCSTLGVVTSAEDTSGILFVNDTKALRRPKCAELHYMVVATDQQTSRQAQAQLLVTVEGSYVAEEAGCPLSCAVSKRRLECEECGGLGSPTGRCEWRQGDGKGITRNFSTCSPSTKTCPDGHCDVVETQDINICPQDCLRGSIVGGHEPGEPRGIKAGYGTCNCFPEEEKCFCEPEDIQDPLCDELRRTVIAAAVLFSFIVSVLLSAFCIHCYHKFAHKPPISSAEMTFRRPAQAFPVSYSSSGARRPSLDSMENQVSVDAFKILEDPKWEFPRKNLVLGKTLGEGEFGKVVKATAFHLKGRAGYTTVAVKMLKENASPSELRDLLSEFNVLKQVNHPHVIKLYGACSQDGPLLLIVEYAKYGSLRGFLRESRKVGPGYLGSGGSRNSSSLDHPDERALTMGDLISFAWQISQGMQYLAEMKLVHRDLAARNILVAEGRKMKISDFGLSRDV
RET9 (wild type) (P07949-2, form named): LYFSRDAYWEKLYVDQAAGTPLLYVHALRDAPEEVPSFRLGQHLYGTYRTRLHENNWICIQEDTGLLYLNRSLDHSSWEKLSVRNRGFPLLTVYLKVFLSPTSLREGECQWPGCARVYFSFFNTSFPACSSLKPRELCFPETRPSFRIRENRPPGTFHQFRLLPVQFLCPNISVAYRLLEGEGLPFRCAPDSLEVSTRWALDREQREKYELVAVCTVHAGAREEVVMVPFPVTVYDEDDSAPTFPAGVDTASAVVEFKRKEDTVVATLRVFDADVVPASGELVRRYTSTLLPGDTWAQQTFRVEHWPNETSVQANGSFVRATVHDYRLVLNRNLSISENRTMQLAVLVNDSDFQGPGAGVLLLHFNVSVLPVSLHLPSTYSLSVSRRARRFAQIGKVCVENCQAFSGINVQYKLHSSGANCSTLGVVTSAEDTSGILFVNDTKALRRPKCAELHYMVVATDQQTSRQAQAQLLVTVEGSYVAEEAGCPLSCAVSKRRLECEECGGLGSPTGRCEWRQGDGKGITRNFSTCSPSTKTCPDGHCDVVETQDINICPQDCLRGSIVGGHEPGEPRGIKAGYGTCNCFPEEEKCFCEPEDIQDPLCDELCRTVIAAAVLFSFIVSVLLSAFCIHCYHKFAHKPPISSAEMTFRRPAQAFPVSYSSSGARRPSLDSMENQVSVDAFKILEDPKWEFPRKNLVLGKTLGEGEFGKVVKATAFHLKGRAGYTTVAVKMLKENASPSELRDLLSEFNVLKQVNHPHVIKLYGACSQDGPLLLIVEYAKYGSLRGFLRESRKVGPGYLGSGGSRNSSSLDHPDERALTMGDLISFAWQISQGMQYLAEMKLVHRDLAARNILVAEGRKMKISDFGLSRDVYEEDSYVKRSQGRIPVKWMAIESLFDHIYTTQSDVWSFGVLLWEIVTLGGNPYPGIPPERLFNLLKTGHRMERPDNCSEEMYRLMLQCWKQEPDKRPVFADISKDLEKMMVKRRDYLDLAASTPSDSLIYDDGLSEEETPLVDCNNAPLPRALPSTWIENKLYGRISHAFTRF
RET9MEN2A Y1015* (P07949-2, form named): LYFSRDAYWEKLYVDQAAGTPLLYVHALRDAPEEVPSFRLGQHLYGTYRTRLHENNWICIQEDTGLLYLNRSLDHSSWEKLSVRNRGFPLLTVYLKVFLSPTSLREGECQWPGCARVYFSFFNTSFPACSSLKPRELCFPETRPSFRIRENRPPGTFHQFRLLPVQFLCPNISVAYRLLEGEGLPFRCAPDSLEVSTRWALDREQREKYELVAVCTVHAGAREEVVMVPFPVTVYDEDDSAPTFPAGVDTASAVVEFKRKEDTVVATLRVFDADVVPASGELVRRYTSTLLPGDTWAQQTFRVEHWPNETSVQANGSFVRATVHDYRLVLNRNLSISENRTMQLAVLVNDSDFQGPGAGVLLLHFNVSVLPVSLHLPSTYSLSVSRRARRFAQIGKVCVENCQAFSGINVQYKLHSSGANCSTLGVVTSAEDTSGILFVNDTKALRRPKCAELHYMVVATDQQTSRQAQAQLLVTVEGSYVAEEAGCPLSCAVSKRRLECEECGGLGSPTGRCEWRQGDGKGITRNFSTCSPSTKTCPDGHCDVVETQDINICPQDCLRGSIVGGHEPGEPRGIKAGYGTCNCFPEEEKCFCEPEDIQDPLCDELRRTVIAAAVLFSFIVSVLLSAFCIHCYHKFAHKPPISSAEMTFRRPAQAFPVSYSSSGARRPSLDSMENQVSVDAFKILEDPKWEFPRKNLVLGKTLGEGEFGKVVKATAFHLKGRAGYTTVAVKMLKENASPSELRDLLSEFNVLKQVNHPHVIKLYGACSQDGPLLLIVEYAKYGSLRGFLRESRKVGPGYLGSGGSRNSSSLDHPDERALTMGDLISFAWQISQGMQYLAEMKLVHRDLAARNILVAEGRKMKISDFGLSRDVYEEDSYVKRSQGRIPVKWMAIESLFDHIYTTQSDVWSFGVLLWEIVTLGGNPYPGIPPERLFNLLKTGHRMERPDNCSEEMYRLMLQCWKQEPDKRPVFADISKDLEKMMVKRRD
RET9MEN2A Y1062F (P07949-2, form named): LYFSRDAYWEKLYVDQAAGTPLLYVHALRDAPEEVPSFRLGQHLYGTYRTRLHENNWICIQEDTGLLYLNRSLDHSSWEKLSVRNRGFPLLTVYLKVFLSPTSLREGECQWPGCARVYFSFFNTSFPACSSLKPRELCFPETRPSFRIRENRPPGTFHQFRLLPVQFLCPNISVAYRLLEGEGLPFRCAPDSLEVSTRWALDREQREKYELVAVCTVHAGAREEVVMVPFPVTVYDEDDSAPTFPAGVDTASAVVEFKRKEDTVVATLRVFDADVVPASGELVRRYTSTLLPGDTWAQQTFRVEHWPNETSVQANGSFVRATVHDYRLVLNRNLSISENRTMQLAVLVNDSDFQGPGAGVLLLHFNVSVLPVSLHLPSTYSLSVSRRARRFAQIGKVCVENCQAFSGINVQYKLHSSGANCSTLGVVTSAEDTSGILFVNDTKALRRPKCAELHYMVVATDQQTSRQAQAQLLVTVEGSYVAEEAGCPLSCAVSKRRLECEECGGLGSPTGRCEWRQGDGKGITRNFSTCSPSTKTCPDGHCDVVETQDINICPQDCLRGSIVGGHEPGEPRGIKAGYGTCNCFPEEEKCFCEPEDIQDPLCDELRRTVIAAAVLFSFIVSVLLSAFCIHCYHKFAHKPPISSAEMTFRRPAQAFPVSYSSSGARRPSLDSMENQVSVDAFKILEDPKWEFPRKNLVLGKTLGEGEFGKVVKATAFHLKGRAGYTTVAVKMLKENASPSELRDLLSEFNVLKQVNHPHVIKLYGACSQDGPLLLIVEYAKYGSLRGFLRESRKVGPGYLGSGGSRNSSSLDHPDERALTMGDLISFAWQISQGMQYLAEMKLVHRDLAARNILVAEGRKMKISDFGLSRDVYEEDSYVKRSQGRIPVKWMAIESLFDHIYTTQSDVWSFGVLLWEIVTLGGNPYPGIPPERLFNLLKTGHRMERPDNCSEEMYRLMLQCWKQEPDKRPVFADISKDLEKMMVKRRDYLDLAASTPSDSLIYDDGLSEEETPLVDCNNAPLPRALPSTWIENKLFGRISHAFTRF
RET9MEN2A (C634R) (P07949-2, form named): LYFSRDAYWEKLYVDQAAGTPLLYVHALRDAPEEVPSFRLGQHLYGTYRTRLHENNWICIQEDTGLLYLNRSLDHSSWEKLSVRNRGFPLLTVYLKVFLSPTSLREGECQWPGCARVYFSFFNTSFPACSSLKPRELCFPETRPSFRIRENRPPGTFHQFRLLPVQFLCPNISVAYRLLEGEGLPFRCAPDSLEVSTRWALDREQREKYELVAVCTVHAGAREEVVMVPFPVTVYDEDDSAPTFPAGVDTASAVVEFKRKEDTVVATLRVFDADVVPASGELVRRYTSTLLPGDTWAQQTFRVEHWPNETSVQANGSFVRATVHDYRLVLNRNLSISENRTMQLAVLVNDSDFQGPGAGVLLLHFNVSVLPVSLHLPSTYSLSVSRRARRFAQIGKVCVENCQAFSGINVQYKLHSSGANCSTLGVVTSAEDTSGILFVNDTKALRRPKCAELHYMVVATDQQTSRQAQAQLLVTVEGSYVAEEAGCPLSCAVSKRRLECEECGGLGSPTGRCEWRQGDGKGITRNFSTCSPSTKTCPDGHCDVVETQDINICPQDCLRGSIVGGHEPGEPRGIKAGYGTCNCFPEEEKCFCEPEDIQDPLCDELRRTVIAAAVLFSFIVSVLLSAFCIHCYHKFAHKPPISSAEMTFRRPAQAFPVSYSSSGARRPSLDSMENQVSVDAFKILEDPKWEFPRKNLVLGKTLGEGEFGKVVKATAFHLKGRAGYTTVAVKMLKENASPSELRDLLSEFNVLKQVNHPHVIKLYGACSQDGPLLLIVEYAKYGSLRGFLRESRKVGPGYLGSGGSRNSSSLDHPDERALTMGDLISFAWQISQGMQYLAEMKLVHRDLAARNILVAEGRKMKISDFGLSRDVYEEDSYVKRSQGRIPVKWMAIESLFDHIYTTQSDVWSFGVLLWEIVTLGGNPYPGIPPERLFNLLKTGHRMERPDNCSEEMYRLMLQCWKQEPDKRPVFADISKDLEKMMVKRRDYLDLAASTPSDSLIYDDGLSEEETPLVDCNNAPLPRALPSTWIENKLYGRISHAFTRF

Experiment [1] has as its target T1, GST-tagged human Cbl-c (human) (UniProt Q9ULV8).
T1 sequence: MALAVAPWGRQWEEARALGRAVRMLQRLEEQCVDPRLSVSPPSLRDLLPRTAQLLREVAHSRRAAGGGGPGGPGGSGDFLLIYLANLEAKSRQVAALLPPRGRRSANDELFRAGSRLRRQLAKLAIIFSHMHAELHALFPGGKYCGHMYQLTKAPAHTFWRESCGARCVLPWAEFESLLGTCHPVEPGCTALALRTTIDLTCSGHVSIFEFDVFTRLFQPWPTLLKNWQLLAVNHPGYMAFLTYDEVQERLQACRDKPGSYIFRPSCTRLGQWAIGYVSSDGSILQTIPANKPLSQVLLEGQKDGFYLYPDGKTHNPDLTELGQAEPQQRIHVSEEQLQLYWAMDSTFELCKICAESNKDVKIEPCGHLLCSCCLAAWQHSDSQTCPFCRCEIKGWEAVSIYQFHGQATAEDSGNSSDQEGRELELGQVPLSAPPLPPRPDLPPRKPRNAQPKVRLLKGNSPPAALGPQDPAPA
Kind of experiment: pull-down; GST pull-down on Glutathione Sepharose 4B from 300 µg whole cell lysate of co-transfected HEK293T cells, overnight at 4°C, five washes in lysis buffer (10 mM Tris-HCl pH 7.5, 150 mM NaCl, 5 mM EDTA, 1% Triton X-100), immunoblot; in Figure 2B cells with 500 µM Sorafenib or DMSO for 90 min before lysis. (In general: In western blotting, separated proteins are transferred to a membrane and probed.)

In experiment [2] the target is T2, endogenous Cbl-c (human (endogenous in CFPac-1)) (UniProt Q9ULV8).
T2 sequence: T1 sequence
Kind of experiment: co-IP; endogenous proteins; agarose-immobilised rabbit anti-Cbl-c, 20 mg CFPac-1 whole cell lysate (30 mg MB-231 and T47D as controls), immunoblot for Enigma.

Experiment [3] addresses RET9MEN2A (C634R) (human) (UniProt P07949). Kind of experiment: co-IP; rabbit anti-RET with Protein A/G Plus-agarose, 300 µg whole cell lysate of co-transfected HEK293T cells, immunoblot; in Figure 4A cells with 20 nM MG-132 for 5 h before collection.
The target of experiment [4] is RET9MEN2A Y1015* (human) (UniProt P07949). The experiment is described as above.
Experiment [5] has as its target RET9MEN2A Y1062F (human) (UniProt P07949). The experiment is described as above.
Experiment [6] concerns the target RET9MEN2A Y900* (human) (UniProt P07949). Described as above.
Experiment [7] addresses HA-tagged Cbl (human) (UniProt P22681). Kind of experiment: co-IP; anti-HA affinity matrix, 300 µg whole cell lysate of co-transfected HEK293T cells, immunoblot for Enigma.
The target in experiment [8] is HA-tagged Cbl-b (human) (UniProt Q13191). Described as above.
Experiment [9] addresses T3, HA-tagged Cbl-c (human) (UniProt Q9ULV8).
T3 sequence: T1 sequence
Described as above.

These are yes or no findings as the source states them, for the method shown. Binding seen in cells or lysates may run through a third protein. Some entries that bind do so weakly or less than the wild type. For part of these data: Sequences can lack the tags named with a protein.

For the substance “RET9MEN2A Y900* (from UniProt P07949-2 29-899) (domain or fragment)”, the binding entry in [1] was “binds”.
On to “endogenous Enigma (from UniProt Q9NR12 1-457)”, for which the binding result in experiment [2] was “binds”.
For “RET9 (wild type) (from UniProt P07949-2 29-1072) (receptor)”, the binding result in experiment [1] is recorded as “binds”.
Consider “RET51 (wild type) (from UniProt P07949-1 29-1114) (receptor)”, for which, in [1], the binding entry is “binds”.
Regarding “RET9MEN2A Y1015* (from UniProt P07949-2 29-1014) (domain or fragment)”, the binding entry in [1] is reported as “binds”.
The same measure, in the same setting: then “untagged human Enigma (from UniProt Q9NR12 1-457)”, with “binds”.
Still for that read-out and setting: the value for “RET9MEN2A Y1062F (from UniProt P07949-2 29-1072) (receptor)” was “binds”.
Regarding “GFP-tagged Enigma (from UniProt Q9NR12 1-457)”, the binding result in [3] is “binds”; in experiment [4], “no binding”; in [5], “no binding”; in [6], “no binding”.
“RET9MEN2A (C634R) (from UniProt P07949-2 29-1072) (receptor)”: in experiment [1], the binding result is “binds”.
Regarding “RET51MEN2A (C634R) (from UniProt P07949 29-1114) (receptor)”, the binding entry in experiment [1] is recorded as “binds”.
For the substance “FLAG-tagged Enigma (from UniProt Q9NR12 1-457)”, the binding entry in experiment [7] is recorded as “no binding”; in experiment [8], “no binding”; in experiment [9], “binds”; in [3], “binds”; in [1], “binds”.
